Source: article PMC6919601, “Identification of Plasmodium dipeptidyl aminopeptidase allosteric inhibitors by high throughput screening” (PLoS ONE, 2019)
About 230 (0.21%) of roughly 110,000 compounds showed an effect of 50% or more. The list shows a part of the results.

Each compound was assayed against DPAP1 (Plasmodium falciparum, UniProt Q8IIJ9) (assay: primary screen, percent inhibition; read by cleavage of a fluorogenic dipeptide substrate; higher = more effect of the substance).
Parameters: species or system P. falciparum D10 trophozoite lysates; single well
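Further: 30 min substrate incubation versus DMSO and 10 µM JCP410 controls.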

Sequence of DPAP1 (Q8IIJ9 whole entry, looked up): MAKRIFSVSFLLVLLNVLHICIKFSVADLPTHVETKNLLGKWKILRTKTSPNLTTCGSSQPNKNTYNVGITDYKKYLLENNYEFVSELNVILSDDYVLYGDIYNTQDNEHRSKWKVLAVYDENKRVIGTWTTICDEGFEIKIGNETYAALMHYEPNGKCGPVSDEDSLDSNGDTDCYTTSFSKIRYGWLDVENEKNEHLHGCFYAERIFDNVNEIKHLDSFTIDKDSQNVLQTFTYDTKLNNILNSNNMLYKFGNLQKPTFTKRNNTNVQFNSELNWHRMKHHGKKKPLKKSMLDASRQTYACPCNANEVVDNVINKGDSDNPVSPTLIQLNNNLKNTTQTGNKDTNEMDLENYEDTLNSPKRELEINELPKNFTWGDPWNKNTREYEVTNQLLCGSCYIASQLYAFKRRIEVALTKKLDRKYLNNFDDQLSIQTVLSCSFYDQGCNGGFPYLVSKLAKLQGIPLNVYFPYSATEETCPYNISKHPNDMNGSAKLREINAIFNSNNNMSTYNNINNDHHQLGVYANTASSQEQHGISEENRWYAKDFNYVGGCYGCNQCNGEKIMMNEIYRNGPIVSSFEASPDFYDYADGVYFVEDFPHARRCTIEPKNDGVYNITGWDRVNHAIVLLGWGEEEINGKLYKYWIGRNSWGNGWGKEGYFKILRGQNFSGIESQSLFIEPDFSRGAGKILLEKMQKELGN

Compound	% Inhibition @ 10 uM [%]
COC(=O)c1cnn2c(C)c(Cc3ccc(C)cc3)c(C)nc12	-2.14
O=C(CSc1ccccn1)Nc1ccccc1Br	-3.9
O=C(Cc1ccc(Br)cc1)N(Cc1ccccc1)c1ccccn1	-5.92
Clc1cccc(-c2nnc3sc(COc4ccccc4)nn23)c1	-0.45
COc1ccc(-c2c(NCc3ccccc3Cl)c(=O)c2=O)cc1	0.0281
CCCSc1nc(O)c2c3c(sc2n1)COC(C)(C)C3	7.39
CCOC(=O)c1ccc2c(c1)C(=O)N(c1ccc(C)cc1)C2=O	1.52
CCOC(=O)c1c(NC(=O)CSc2nc3ccccc3s2)sc2c1CCC2	1.52
CCCOP(=O)(CN1CCOCC1)OCCC	5.53
Cc1ccc(-c2cc(C(=O)Nc3ccc(C(N)=O)cc3)c3ccccc3n2)cc1	-6.02
COc1ccc(NC(=O)CSCC(=O)Nc2ccccc2Cl)cc1	-0.883
O=C(O)c1cccc(CN2C(=O)S/C(=C/c3ccc(O)cc3)C2=O)c1	3.03
O=C1S/C(=C\c2cccs2)C(=O)N1Cc1ccc(F)cc1	-3.13
Cc1ccc(C(O)C#CC23CC4CC(CC(C4)C2)C3)o1 (stereo not drawn)	-0.725
Cc1ccc(CNC(=O)C2CCN(S(=O)(=O)N3CCC4(CC3)OCCO4)CC2)cc1	-1.21
CC(C)(C)c1ccc(S(=O)(=O)N(CCCN2CCOCC2)Cc2cccs2)cc1	2.05
COc1cc(/C=C2\SC(Nc3ccc(Cl)cc3)=NC2=O)cc(OC)c1OC	1.05
CC(O)CN(CC1=CC[C@H]2C[C@@H]1C2(C)C)CC(C)O (stereo partly drawn)	3.68
CC(Oc1ccccc1)C(=O)Nc1ccc(Br)cc1 (stereo not drawn)	0.843
N#CC1=C(N)N(c2cccc(Cl)c2)C2=C(C(=O)CCC2)C1c1ccc2c(c1)OCO2 (stereo not drawn)	0.536
CCCNC(=O)CCc1nc(-c2ccccc2C)no1	-3.12
CN(CC(=O)NC1CCCc2ccccc21)S(=O)(=O)c1ccc2[nH]c(-c3ccccc3)nc2c1 (stereo not drawn)	-1.67
O=c1oc2ccccc2c2nccnc12	-8.01
c1ccc(CNc2nc(-c3ccccc3)cc(-c3ccccc3)n2)cc1	-4.5
O=C(NCc1cccnc1)c1ccccc1F	-1.25
Cc1ccc(-c2nnc(N3CCN(C(=O)C4CCCCC4)CC3)c3ccccc23)cc1	-2.75

Compound	% Inhibition @ 10 uM [%]
O=C(O)CC1Nc2ccccc2NC1=O (stereo not drawn)	-4.35
O=C(CCn1cnc2onc(-c3ccc(F)cc3)c2c1=O)NCc1cccnc1	-4.97
O=C(O)C1Cc2c([nH]c3ccccc23)C(c2cccc(Cl)c2Cl)N1 (stereo not drawn)	-1.8
COc1cc(OC)cc(-n2nnc(-c3nc(-c4ccccc4C)no3)c2N)c1	-2.72
Cn1c(=O)c2c(nc(N3CCOCC3)n2C)n(C)c1=O	0.182
CCOC(=O)C1CCN(Cc2ccc(F)cc2)CC1	-0.127
C/C(=N\c1ccc2ccccc2c1)C1=C(O)CCCC1=O	-11.4
CCOCCCNC(=O)c1ccc2nc(N3CCC(C)CC3)sc2c1	2.65
Cc1c(-c2nsc(NC(=O)c3ccccc3)n2)nnn1-c1cccc(C(F)(F)F)c1	0.573
CCOc1ccc(N2C(=O)CC(NCCc3ccccc3)C2=O)cc1 (stereo not drawn)	-11
O=C(/C=C/c1cccc([N+](=O)[O-])c1)Nc1cccc(Cl)c1	-3.94
Cc1ccc(-c2cn3c(n2)sc2cc(C(=O)NC(C)C)ccc23)c(C)c1	3.27
CC(C)C(=O)Nc1c(C(=O)NC(C)(C)C)oc2ccccc12	-1.61
C=CCOc1ccc(C2c3c(oc4ccccc4c3=O)C(=O)N2c2nnc(C(C)C)s2)cc1 (stereo not drawn)	-1.86
O=C1N=C(Nc2ccccn2)SC1Cc1cccc(Cl)c1Cl (stereo not drawn)	2.38
Cc1ccccc1N(CC(=O)N1CCc2ccccc2C1)S(C)(=O)=O	-1.89
N#CSCC(=O)n1c2c(c3ccccc31)CCCC2	-8.95
CCOC(=O)c1nc2ccccc2nc1O	1.9
CN(C)c1nc2ccccc2n2cnnc12	-0.692
CN(C)c1ccc(NC(=O)/C=C/c2ccccc2)cc1	4.26
COc1cc2nc(O)c3sc4cc(OC)c(OC)cc4c3c2cc1OC	-6.05
Cc1ccc(C2(O)CSC3=C(C#N)C(c4cccc(F)c4)CC(=O)N32)cc1 (stereo not drawn)	-3.52
COc1ccc2[nH]c3c(=O)n(CC(=O)NC(C)CCc4ccccc4)c(=S)[nH]c3c2c1 (stereo not drawn)	-2.19
CC(C)CCNC(=O)c1cc2c(Cl)ccc3c2n1CCO3	4.12
Cc1ccc2cnn(CC(=O)N3CC(C)CC(C)C3)c2c1 (stereo not drawn)	0.596
CCO/C(O)=C/c1nc2ccccc2nc1O	3.15

Compound	% Inhibition @ 10 uM [%]
Fc1c(F)c(C(F)(F)F)c(F)c(F)c1-n1nnc2ccccc21	-1.68
CCCCC(=O)Nc1nnc(S(=O)(=O)N2CCC(C)CC2)s1	0.00665
CC(=O)c1ccc(NC(=O)CCCOc2ccc(Cl)cc2C)cc1	-1.44
O=C(c1ccc(Cl)c(Cl)c1)N1CCN(Cc2ccccc2)CC1	-6.68
CCN1CCN(CC(O)COc2ccc(C(C)C)cc2)CC1 (stereo not drawn)	-5.5
O=C(NCc1cccnc1)c1cc2c(Cl)nc3ccccc3c2s1	1.38
CCn1c(C(=O)O)c(CNCCC2=CCCCC2)c2ccc(C)cc21	-5.37
COc1ccc(C(=O)N(Cc2ccc(Cl)cc2)Cc2ccco2)cc1	-7.86
CCOc1cccc(-c2nc3c(=O)[nH]c(=O)n(C)c3[nH]2)c1	-3.53
CCOC(=O)C1=CN(Cc2ccc(OC)cc2)C=C(C(=O)OCC)C1c1ccc(OCC)cc1	0.219
COc1ccc(OC2CCNCC2)cc1	-1.07
C/C=C(\C)CN1CCN(Cc2ccccc2)CC1	-2.21
CCOC(=O)Nc1nc2ccc(C)cc2s1	-5.15
CCOC(=O)C1=C(c2ccccc2)NC(SC)=C(C#N)C1c1ccccc1Cl (stereo not drawn)	0.723
CC1CN(C(=O)Cn2cc(SCC(=O)NCCc3ccccc3)c3ccccc32)CC(C)O1 (stereo not drawn)	8.23
CCOc1ccc(C(=O)Nc2nc3ccccc3s2)cc1	8.21
COc1ccc(C)cc1-n1c(C)cc(/C=C2\C(=N)N3N=C(N4CCOCC4)SC3=NC2=O)c1C	0.0579
CCOC(=O)N1CCC(c2nnc(-c3ccc(Cl)cc3Cl)o2)CC1	-1.03
CN1CCC(N(C)Cc2cc(Cl)ccc2[N+](=O)[O-])CC1	4.73
O=C(Cn1cnc2c(oc3ccccc32)c1=O)NCC1CCCO1 (stereo not drawn)	-7.67
Cn1cnc2c(sc3nc4c(cc32)COC(C)(C)C4)c1=O	3.47
O=C(NCCc1ccccc1)C1CCN(S(=O)(=O)N2CCOCC2)CC1	5.23
CCOC(=O)N1CCN(C2CCN(CCc3ccccc3)CC2)CC1	0.217
Cc1nc(=O)c(-c2ccccc2)c(C)n1-c1cccc(Br)c1	-3.35
Cc1ccsc1CN(C(=O)c1cc2ccccc2oc1=O)C1CCS(=O)(=O)C1 (stereo not drawn)	-6.5
COc1ccc(CC(=O)Nc2ccc(S(=O)(=O)N3CCCCCC3)cc2)cc1	8.49

Compound	% Inhibition @ 10 uM [%]
CC(=O)c1ccc(NS(=O)(=O)c2ccc(N)cc2)cc1	0.408
COc1ccc(Br)cc1CNCc1c(C(=O)O)[nH]c2cc(C)ccc12	-2.39
Fc1ccccc1CN1CCN(c2ccccc2Cl)CC1	-2.7
COc1ccc(C(=O)NCc2cn3c(C)csc3n2)c(OC)c1	2.57
COc1ccc(CCNC(=O)c2cnn3c(C)c(Cc4cc(C)ccc4C)c(C)nc23)cc1OC	-2.26
Cc1ccc(CNc2nc3ccccc3c3nc(-c4ccncc4)nn23)cc1	0.981
O=C(Nc1cc2nn(-c3ccccc3)nc2cc1Cl)c1ccc2c(c1)OCCO2	-1.06
O=C(COc1ccc2ccccc2c1)Nc1c2c(nn1-c1cccc(Cl)c1)CSC2	4.51
COc1cccc(-c2nc(CS(=O)(=O)CC(=O)N3CCN(Cc4ccccc4)CC3)c(C)o2)c1	-7.53
CC(C)Cn1c(SCc2nc(-c3cccs3)no2)nnc1-c1ccncc1	-2.21
Cc1noc(C)c1-c1ccc(C(=O)N[C@@H](CC(C)C)C(=O)NCC#N)cc1	-0.207
O=C(Nc1ccccc1Br)c1cccc2c1-c1ccccc1C2=O	-4.14
CCN(CC)C(=O)c1ccc(SC)cc1OC	-0.413
COc1ccc(NC(=O)CN(c2cc(Cl)ccc2OC)S(C)(=O)=O)c(OC)c1	-0.185
COc1cc(CC(C)N2CCc3cc(OC)c(OC)cc3C2)ccc1O (stereo not drawn)	-1.75
Cc1cc(C)nc(NC(=O)NS(=O)(=O)N2CCCCC2)n1	-0.274
CCCSC1=C(C#N)C(c2ccccc2C)CC(=O)N1 (stereo not drawn)	5.05
O=C(CSCc1cnn(-c2ccccc2)c1-n1cccc1)N1CCN(Cc2ccccc2)CC1	-1.3
CCCCCc1ccc(-c2ccc(C(=O)Nc3ccc(Cl)c4c3C(=O)c3ccccc3C4=O)cc2)cc1	-0.268
CCSC1=NSC2=NC(=O)/C(=C\c3ccc(OS(C)(=O)=O)c(OC)c3)C(=N)N12	-11.3
CCCCOC(=O)C1=C(C)NC(=O)NC1c1ccc(O)c(OCC)c1 (stereo not drawn)	2.7
O=C1CCC(C(=O)Nc2cccc(C(F)(F)F)c2)N1 (stereo not drawn)	-4.03
COc1ccc(NC(=O)c2ccccc2Cl)c(N)c1	1.92
Cc1ccc(C(=O)C2=C(O)C(=O)N(Cc3ccco3)C2c2cccc(Cl)c2)o1 (stereo not drawn)	-9.98
